# Measurements as given in PubChem BioAssay AID485344 (National Center for Advancing Translational Sciences (NCATS), 2010).
# Among all 340,000 compounds or so, about 6,900 (2%) were called active. No stated cut-off is given here; in the data, active means inhibition above about 30%; inactive means below that, where a call was filed. The entries are a selection whose mix differs from that of the whole data set. Where no call is shown, the source filed none.
# Target: D(2) dopamine receptor (Homo sapiens) (UniProt P14416)
# Assay: HTS Assay for Allosteric Antagonists of the Human D2 Dopamine Receptor: Primary Screen for Antagonists; further: 0% is about no effect
# Details: HEK293 TREx D2 cells, calcium flux, dopamine EC80; at 10 µM; stronger effect = higher value
# Method in brief: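 Read-out: kinetic calcium fluorescence (1 cycle/s) in inducible HEK293 T-REx D2 cells after an EC80 dopamine addition that followed 180 s compound preincubation. Loss of the dopamine response indicates antagonism.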
# Chain of UniProt P14416 (P14416 whole entry, looked up): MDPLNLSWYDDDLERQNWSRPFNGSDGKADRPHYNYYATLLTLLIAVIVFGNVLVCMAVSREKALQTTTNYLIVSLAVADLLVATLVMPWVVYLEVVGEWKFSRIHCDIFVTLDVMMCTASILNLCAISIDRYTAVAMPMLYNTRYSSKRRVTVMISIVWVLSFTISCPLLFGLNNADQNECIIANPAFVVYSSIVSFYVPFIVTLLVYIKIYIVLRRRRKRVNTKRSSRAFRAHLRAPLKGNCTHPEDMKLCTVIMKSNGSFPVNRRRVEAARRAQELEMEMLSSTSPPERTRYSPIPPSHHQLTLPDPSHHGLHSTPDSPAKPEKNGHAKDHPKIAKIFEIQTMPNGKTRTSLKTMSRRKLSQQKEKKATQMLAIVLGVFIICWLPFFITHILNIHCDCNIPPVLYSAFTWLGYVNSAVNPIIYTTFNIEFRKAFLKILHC
row,Compound,inhibition
1,O=C(NCc1cccc(Cl)c1)C1CCCN(c2nn3cc(-c4ccc(F)cc4)nc3s2)C1 (stereo not drawn),0.184%
2,CCc1ccc(-c2nc(CS(=O)CC(=O)NCc3ccc(F)cc3)c(C)o2)cc1 (stereo not drawn),0.284%
3,Cc1ccc(Cl)cc1NC(=O)CN1C(=O)c2ccccc2Sc2ncccc21,17.3%
4,Cc1ccc(CNS(=O)(=O)c2c(C)nc3sc(C)cn3c2=O)cc1,22.3%
5,CCCn1cnc2cc(NC(=O)c3cc(OC)c(OC)c(OC)c3)ccc21,-0.369%
6,COc1ccc(CCNC(=O)c2ccc3c(c2)nc2n3CCCCC2)cc1OC,8.88%
7,Cc1cccc(N2CCN(Cc3nnc(-c4cccc(Br)c4)o3)CC2)c1C,-19.2%
8,Cc1cc(NC(=O)c2ccco2)cc(-c2nc3ccccc3o2)c1O,-11.5%
9,CCN(C(=O)CCS(=O)(=O)c1cc2c(cc1C)NC(=O)CO2)c1cccc(C)c1,15.1%
10,CCn1c(C)c(C)c2cc(C(=O)N3CCN(c4ccccc4)CC3)ccc21,4.03%
11,CN(C)CCN(Cc1ccccc1)S(=O)(=O)c1csc(C(N)=O)c1,2.28%
12,O=C(Cn1ncn2cccc2c1=O)NCc1cccc(Br)c1,25.7%
13,COc1ccc(N(CC(C)C)S(=O)(=O)c2nnc(NC(=O)c3ccco3)s2)cc1,-1.01%
14,CCOC(=O)N1CCN(Cc2nc3cc([N+](=O)[O-])ccc3n2CC)CC1,active: 36.7%
15,Cc1c(Cl)cccc1NC(=O)Cn1c(=O)cc(C)c2c(C)nn(-c3cccc(F)c3)c21,-17.2%
16,COc1ccccc1Cc1nc2ccccc2nc1SCC(=O)Nc1c(C)cccc1C,8.32%
17,CCC(=O)Nc1cc(-c2cn3cccnc3n2)ccc1OC,-13.2%
18,CC1=C(C(=O)Nc2ccccc2)C(C(C)C)n2nc(SCc3ccccc3C)nc2N1 (stereo not drawn),-13%
19,CCOc1ccc(-c2cn3c(n2)sc2cc(C(=O)NCCCN4CCCCC4)ccc23)cc1,-11.8%
20,O=c1[nH]c2c(c(=O)[nH]1)CCC2,active: 36.9%
21,COc1cc(NC(=O)c2ccc(-c3nc(CSc4ccccc4)c(C)o3)cc2)cc(OC)c1,-7.98%

row,Compound,inhibition
1,CCc1ccc(NC(=O)Cn2nc(C(F)(F)F)c3c2CCCC3)cc1,2.08%
2,COCCCn1c(C)cc(C(=O)COC(=O)CCc2nc3ccccc3c(=O)[nH]2)c1C,active: 30.5%
3,CCCCc1nn2c(=O)cc(COC(=O)c3ccc4c(c3)OCO4)nc2s1,4.71%
4,CCOC(=O)c1cc(-c2ccc(OC)cc2)n(CCC(=O)Nc2cccc(C)c2C)c1C,-3.5%
5,O=C(CCCn1c(=O)[nH]c2ccc(Br)cc2c1=O)N1CCN(c2cccc(Cl)c2)CC1,0.747%
6,COc1ccccc1C(=O)NCC(c1ccc(N(C)C)cc1)N1CCc2ccccc21 (stereo not drawn),6.1%
7,COc1cc(OC)cc(-n2c(=O)c3ccccc3n(Cc3ccccc3C#N)c2=O)c1,16.1%
8,CC1CCN(S(=O)(=O)c2ccc3ncn(CC(=O)N4CCN(C)CC4)c(=O)c3c2)CC1,active: 48.4%
9,COC(=O)c1ccccc1NC(=O)Cn1nnc(-c2ccc(OC)cc2)n1,-18.3%
10,Cc1noc(/C=C/NCc2cccnc2)c1S(=O)(=O)N(C)CC(=O)N1CCc2ccccc21,active: 57.2%
11,COc1cc(Nc2nn(-c3ccc(OC(F)(F)F)cc3)nc2C(C)=O)cc(OC)c1,3.92%
12,COc1ccc(C(=O)O)c(OC)n1,active: 30.1%
13,O=C(NCCc1ccc(Cl)cc1)c1ccc2nc(CCc3ccccc3)oc2c1,6.24%
14,COc1cc(OC)cc(-c2nnc(SCC(=O)c3ccc([N+](=O)[O-])cc3)o2)c1,4.87%
15,Cc1nc(S(=O)(=O)N2CCN(c3cccc(Cl)c3)CC2)cn1C,-11.9%
16,CC(C)Cn1c(CN2CCN(c3cccc(Cl)c3)CC2)nc2c1c(=O)[nH]c(=O)n2C,-15.1%
17,COc1ccc(N(CC(=O)NCCc2ccc(C)cc2)S(=O)(=O)c2c(C)nn(C)c2C)cc1,-2.07%
18,CC(C)=C1C2CCC1C1C(=O)N(NC(=O)COc3ccc(C(C)(C)C)cc3)C(=O)C21 (stereo not drawn),active: 32.1%
19,CC(C)Cn1c(-c2ccccc2Cl)nc2ccccc21,-0.841%
20,O=C(NCCc1ccc(Cl)cc1)c1nnc(Cc2ccc(Cl)cc2Cl)o1,7.49%
21,CCOc1ccc(-c2c(C)nn3c(C)c(C(=O)NCCN(C)C)cnc23)cc1OCC,9.12%

row,Compound,inhibition
1,COc1ccccc1N=c1oc2cc(O)ccc2cc1C(=O)NCC1CCCO1 (stereo not drawn),active: 35.6%
2,Cn1c(=O)c2c(nc(N3CCOCC3)n2Cc2ccccc2Cl)n(C)c1=O,-11.1%
3,COCCCNC(=O)CCCn1c(=O)c2ccccc2n(CC(=O)Nc2ccc(C)cc2Cl)c1=O,8.83%
4,CCCCNc1nc(CC(C)=O)ns1,active: 30.2%
5,Oc1ccccc1N1CCN(CC(O)COC2CCCc3ccccc32)CC1 (stereo not drawn),active: 40.1%
6,Cc1ccc(C(=O)O)cc1NC(=O)c1nsc2ccccc12,7.83%
7,Cc1ccc(CNC(=O)c2cc(-c3ccc(C)c(C)c3)nc3ccccc23)cc1,3.72%
8,Cc1ccc(Cl)cc1N1CCN(c2nc3ccccc3c3nc(-c4cccnc4)nn23)CC1,-11.3%
9,COc1ccc(CCNC(=O)CN2C(=O)COc3ccc(S(=O)(=O)N4CCCC4)cc32)cc1OC,-0.619%
10,CCCOc1ccc(Oc2nc(NC)nc(N3CCOCC3)n2)nn1,2.38%
11,Cc1ccc(NC(=O)C(=O)NCC(c2cccnc2)N2CCN(Cc3ccccc3)CC2)cc1Cl (stereo not drawn),-2.59%
12,Cc1ccc(-c2onc(C)c2C)cc1S(=O)(=O)N1CCN(c2ccccc2F)CC1,2.27%
13,COc1cc(OC)c(NC(=O)Nc2ccc3c(c2)N(C)C(=O)c2ccccc2S3)cc1Cl,-4.63%
14,COc1cc(OC)cc(-n2c(=O)c3sccc3n(Cc3ccc(F)cc3)c2=O)c1,-16.6%
15,CCn1c2ccccc2c2cc(CN3CCN(Cc4cccc(Cl)c4)CC3)ccc21,-23.2%
16,COc1cccc(NC(=O)CCNC(=O)Cn2cnc3ccccc3c2=O)c1,6.13%
17,COc1cc(C(CC(=O)NCc2ccccc2Cl)N2Cc3ccccc3C2=O)cc(OC)c1OC (stereo not drawn),-6.71%
18,COC(=O)c1ccccc1NC(=O)CCCn1nc(C)c2c(C)n(-c3ccccc3)nc2c1=O,-4.34%
19,Cc1ccnc(Nc2nc3ccccc3s2)n1,active: 39.5%
20,CCOc1ccccc1CNC(=O)c1ccc(-n2c(C)cc3c2CCC(C)C3)cc1 (stereo not drawn),-3.72%
21,CCOc1ccc(NC(=O)C(CC)n2nc(C)c3c(C)n(-c4ccccc4)nc3c2=O)cc1 (stereo not drawn),11.1%
